# About 75 (2%) of roughly 3,200 compounds showed an effect of 50% or more. This is one part of the list.
# Test system: T1, S. aureus MSSA476
# T1 construct: MSSA476
# Design: species or system S. aureus MSSA476 (TSB) or V. cholerae SAD30 (LB); 384-well bacterial growth screen at 25 uM, OD600 relative to DMSO control
# Conditions: relative growth, OD600, TSB; 25 µM; inhibitor
row,Structure (SMILES),% of control remaining [%]
1,"C=CC(=O)NC1COCC1C (stereo not shown) [1-D06, N-(4-methyloxolan-3-yl)prop-2-enamide]",101.275
2,"CCc1oc2ccccc2c1C=C(C#N)C(=O)NC1CC1 [9-M12, 2-cyano-N-cyclopropyl-3-(2-ethyl-1-benzofuran-3-yl)prop-2-enamide]",127.64
3,"C=CC(=O)NCc1cc(Cl)c2c(c1)OCCO2 [1-L05, N-[(8-chloro-2,3-dihydro-1,4-benzodioxin-6-yl)methyl]prop-2-enamide]",104.791
4,"CSC1=C(C#N)C2(CCCCC2)C(C#N)=C(NC(=O)CCl)N1 [4-E10, 2-chloro-N-[1,5-dicyano-4-(methylsulfanyl)-3-azaspiro[5.5]undeca-1,4-dien-2-yl]acetamide]",96.4269
5,"Cc1noc(C)c1C(C)CNC(=O)C(C)Cl (stereo not shown) [6-P19, 2-chloro-N-[2-(3,5-dimethyl-1,2-oxazol-4-yl)propyl]propanamide]",92.878
6,"C=CC(=O)NCc1nc2ccccc2c(=O)n1C [3-J10, N-[(3-methyl-4-oxo-3,4-dihydroquinazolin-2-yl)methyl]prop-2-enamide]",133.391
7,"N#Cc1ccc(N2C(=O)C=CC2=O)cc1 [10-B09, 4-(2,5-dioxo-2,5-dihydro-1H-pyrrol-1-yl)benzonitrile]",133.438
8,"Cc1ccc(S(=O)(=O)NC2CN(C(=O)CCl)C2)cc1 [5-E07, N-[1-(2-chloroacetyl)azetidin-3-yl]-4-methylbenzene-1-sulfonamide]",90.7104
9,"COC(=O)Cc1ccc(C(=O)CCl)s1 [10-L12, methyl 2-[5-(2-chloroacetyl)thiophen-2-yl]acetate]",104.063
10,"Cc1cnc(C(C)N2CCN(C(=O)C(C)Cl)CC2)s1 (stereo not shown) [7-M03, 2-chloro-1-{4-[1-(5-methyl-1,3-thiazol-2-yl)ethyl]piperazin-1-yl}propan-1-one]",104.867
11,"CC(NC(=O)C(C#N)=Cc1ccc(-c2ccccc2)cc1)c1ccccc1 (stereo not shown) [8-J11, 3-{[1,1'-biphenyl]-4-yl}-2-cyano-N-(1-phenylethyl)prop-2-enamide]",121.826
12,"CNC(=O)C(C#N)=Cc1cc(C)n(-c2cccc3ccccc23)c1C [9-P16, 2-cyano-3-[2,5-dimethyl-1-(naphthalen-1-yl)-1H-pyrrol-3-yl]-N-methylprop-2-enamide]",106.667
13,"C=CC(=O)NCc1cn(C2CCCC2)nc1C [3-N21, N-[(1-cyclopentyl-3-methyl-1H-pyrazol-4-yl)methyl]prop-2-enamide]",99.9565

# Reference: article PMC11995724, “Antibiotic target discovery by integrated phenotypic and activity-based profiling of electrophilic fragments” (Cell chemical biology, 2025)
